Reference: the supplement of paper PMC10670038
Structures can show the parent of a compound that is named as a salt. ± gives the standard deviation of the averaged measurements. The full ranking holds about 2,000 compounds; the median of “relative cell viability vs DMSO, compound + 0.2 uM CuET” is about 1, and the lowest 2% start at about 0.25. The list shows a part of the results.

Test system: TE10
Assay: relative cell viability vs DMSO, compound + 0.2 uM CuET (fraction); TE10 is an esophageal squamous carcinoma line; higher = less cytotoxic
Conditions: 2 µM; co-treatment: CuET (bis(diethyldithiocarbamate)copper) 0.2 uM; 48 h
Method: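 TE10 ESCC cells (1,000/well, 384-well plates) were treated with Selleck bioactive library compounds at 2 uM combined with 0.2 uM CuET (copper diethyldithiocarbamate) for 48 h. Viability was read by CellTiter-Glo and expressed relative to DMSO wells. Two technical replicates (A, B).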

Structure (SMILES) | relative cell viability
CC(C)(C)[N+]([O-])=Cc1ccc(S(=O)(=O)O)cc1S(=O)(=O)O | 1.15 ± 0.091
CC(C)OC(=O)C1=CN(C(=O)c2ccc(F)c(F)c2)CC(C)(C)c2c1[nH]c1ccccc21 | 1.13 ± 0.041
CN1CCN(C(c2ccccc2)c2ccccc2)CC1 [Cyclizine 2HCl] | 1.19 ± 0.01
Cc1ccc(F)c(NC(=O)Nc2ccc(-c3cccc4[nH]nc(N)c34)cc2)c1 [Linifanib (ABT-869)] | 0.606 ± 0.18
C[C@]12CC[C@@H]3c4ccc(OC(=O)c5ccccc5)cc4CC[C@H]3[C@@H]1CC[C@@H]2O [Estradiol Benzoate] | 1.11 ± 0.042
CC[C@@H](C)Nc1cc(C(=O)N[C@H]2C[C@H]3CC[C@@H](C2)N3c2ccc(C(=O)C3CC3)cn2)c(C)cc1C(N)=O | 0.505 ± 0.04
Cc1ccc(NC(=O)c2cccc(C(C)(C)C#N)c2)cc1Nc1ccc2ncn(C)c(=O)c2c1 | 1.09 ± 0.013
OCCN(CCO)c1nc(N2CCCCC2)c2nc(N(CCO)CCO)nc(N3CCCCC3)c2n1 [Dipyridamole] | 1.13 ± 0.091
CC(C)OC(=O)OCOP(=O)(CO[C@H](C)Cn1cnc2c(N)ncnc21)OCOC(=O)OC(C)C [Tenofovir Disoproxil Fumarate] | 1.27 ± 0.19
COc1ccc(-n2c(SCCCN3C(=O)c4cccc5cccc(c45)C3=O)nnc2-c2ccncc2)cc1 | 0.995 ± 0.085
Cc1cccc(CC(=O)N2CCc3c2ccc(-c2cn(C)c4ncnc(N)c24)c3F)n1 | 1.16 ± 0.072
Cc1c(-c2cnccn2)ssc1=S [Oltipraz] | 0.787 ± 0.064
Cc1ccc(=O)n(-c2ccccc2)c1 [Pirfenidone] | 1.15 ± 0.27
N[C@@H](Cc1cc(I)c(Oc2ccc(O)c(I)c2)c(I)c1)C(=O)O [Liothyronine Sodium] | 1.05 ± 0.19
COc1ccc(C2CC(=O)c3c(O)cc(OC4OC(COC5OC(C)C(O)C(O)C5O)C(O)C(O)C4O)cc3O2)cc1OC (stereo unspecified) [Methyl-Hesperidin] | 1.16 ± 0.051
O=C(Oc1cc(S(=O)(=O)c2ccccc2)ccc1[N+](=O)[O-])c1ccc(Cl)cc1 | 1.04 ± 0.07
CN(C)C(=O)[C@H](O)[C@H](Cc1ccccc1)NC(=O)c1cc2cc(Cl)ccc2[nH]1 | 1.21 ± 0.28
COC(=O)C1=C(C#N)NC(C)=C(C(=O)OC(C)C)C1c1cccc([N+](=O)[O-])c1 (stereo unspecified) [Nilvadipine] | 1.11 ± 0.1
CNc1nc(Nc2cn(C(C)(C)C#N)nc2C)ncc1C(F)(F)F | 1.16 ± 0.09
COCCCN1CCC(NC(=O)c2cc(Cl)c(N)c3c2OCC3)CC1 [Prucalopride] | 1.19 ± 0.14
COCCCN1CCC(NC(=O)c2cc(Cl)c(N)c3c2OCC3)CC1 [Prucalopride Succinat] | 1.15 ± 0.088
O=C(Nc1ccncc1)c1cc([N+](=O)[O-])ccc1Cl | 1.18 ± 0.18
O=C(CCCN1CCN(c2ccccn2)CC1)c1ccc(F)cc1 [Azaperone] | 1.245 ± 0.0024
C[C@H](CCC(=O)O)[C@H]1CC[C@H]2[C@@H]3[C@@H](O)C[C@@H]4C[C@H](O)CC[C@]4(C)[C@H]3CC[C@]12C [Ursodiol] | 1.07 ± 0.063
C[C@@H](O[C@H]1OCCN(Cc2nn(P(=O)(O)O)c(=O)[nH]2)[C@H]1c1ccc(F)cc1)c1cc(C(F)(F)F)cc(C(F)(F)F)c1 [Fosaprepitant dimeglumine salt] | 1.056 ± 0.0094
CCC(C)(Oc1ccc(C2(c3ccc(OC(C)(CC)C(=O)O)cc3)CCCCC2)cc1)C(=O)O (stereo unspecified) [Clinofibrate] | 1.11 ± 0.074

Structure (SMILES) | relative cell viability
CNc1cc(-c2cccc(Cl)c2Cl)nc(N)n1 | 0.84 ± 0.04
COc1cc2nccc(Oc3ccc(NC(=O)NC4CC4)c(Cl)c3)c2cc1C(N)=O [Lenvatinib (E7080)] | 1.55 ± 0.36
CN1CCc2c(c3ccccc3n2Cc2ccc(C(=O)NO)cc2)C1 [Tubastatin A HCl] | 0.979 ± 0.011
CN1CCc2c(c3ccccc3n2Cc2ccc(C(=O)NO)cc2)C1 [Tubastatin A] | 1.375 ± 0.0024
C=CC(C)(C)c1cc(C=CC(=O)c2ccc(O)cc2)c(OC)cc1O [Licochalcone A] | 1.008 ± 0.0053
CC[C@@H]1C(=O)OC[C@@H]1Cc1cncn1C [Pilocarpine HCl] | 1.21 ± 0.12
CN(C)C(=O)c1ccc(S(=O)(=O)c2ccc(NC(=O)C(C)(O)C(F)(F)F)c(Cl)c2)cc1 (stereo unspecified) | 1.2 ± 0.14
CC(C)(CO)c1cc2cc(NC(=O)C3(c4ccc5c(c4)OC(F)(F)O5)CC3)c(F)cc2n1C[C@@H](O)CO | 1.19 ± 0.028
Cc1c(CN2CCN(C(=O)[C@H](C)O)CC2)sc2c(N3CCOCC3)nc(-c3cnc(N)nc3)nc12 | 0.495 ± 0.091
Cc1cnc(-c2cc(N3CCN(C(=O)CCS(C)(=O)=O)CC3)ncc2Cl)c(C)c1 | 1.14 ± 0.09
N#CCNC(=O)c1ccc(-c2ccnc(Nc3ccc(N4CCOCC4)cc3)n2)cc1 | 1.13 ± 0.15
OCc1c[nH]c2ccccc12 [Indole-3-carbinol] | 1.1 ± 0.11
O=C(/C=C/c1ccc(O)cc1)c1ccc(O)cc1O [Isoliquiritigenin] | 0.776 ± 0.037
N#Cc1ccc(-c2csc(NN=C3CCCC3)n2)cc1 [Remodelin] | 1.04 ± 0.028
CS(=O)(=O)OCCCCOS(C)(=O)=O [Busulfan] | 0.973 ± 0.14
Cc1ncc(-c2ccnc(Nc3ccc(S(C)(=O)=O)cc3)n2)n1C(C)C | 0.949 ± 0.042
CC(=O)NS(=O)(=O)c1ccc(N)cc1 [Sulfacetamide Sodium] | 0.969 ± 0.09
Cc1cn([C@H]2C=C[C@@H](CO)O2)c(=O)[nH]c1=O [Stavudine (d4T)] | 1.41 ± 0.16
C=C1CC[C@@H]2[C@](C)(CO)[C@H](O)CC[C@@]2(C)[C@@H]1C/C=C1/C(=O)OC[C@H]1O [Andrographolide] | 0.923 ± 0.02
OCc1ccccc1O[C@@H]1O[C@H](CO)[C@@H](O)[C@H](O)[C@H]1O [Salicin] | 1.18 ± 0.029
CN1C(CCl)Nc2cc(Cl)c(S(N)(=O)=O)cc2S1(=O)=O (stereo unspecified) [Methyclothiazide] | 1.15 ± 0.059
NCCCC[C@@H]1NC(=O)[C@@H](Cc2ccc(O)cc2)NC(=O)[C@H](CC(=O)O)NC(=O)CNC(=O)[C@H](CCCN=C(N)N)NC1=O [Cyclo(RGDyK)] | 1.19 ± 0.27
CNC(=O)c1ccccc1Nc1cc(Nc2ccc(N3CCOCC3)cc2OC)ncc1C(F)(F)F | 0.955 ± 0.1
CNC(=O)c1cc(Oc2ccc(NC(=O)Nc3ccc(Cl)c(C(F)(F)F)c3)cc2)ccn1 [Sorafenib] | 1.09 ± 0.05
CNC(=O)c1cc(Oc2ccc(NC(=O)Nc3ccc(Cl)c(C(F)(F)F)c3)cc2)ccn1 [Sorafenib Tosylate] | 1.18 ± 0.095
COc1cccc2c1C(=O)c1c(O)c3c(c(O)c1C2=O)C[C@@](O)(C(C)=O)C[C@@H]3O[C@H]1C[C@H](N)[C@H](O)[C@H](C)O1 [Daunorubicin HCl] | 1 ± 0.077

Structure (SMILES) | relative cell viability
Cc1ccc(S(=O)(=O)Cc2nc(-c3ccc(C(=O)NCc4cccnc4)cc3)oc2C)cc1 | 0.987 ± 0.007
CC/C(=C(\c1ccc(O)cc1)c1ccc(OCCNC)cc1)c1ccccc1 [Endoxifen HCl] | 1.02 ± 0.02
CN(c1ccccc1CNc1nc(Nc2ccc3c(c2)CC(=O)N3)ncc1C(F)(F)F)S(C)(=O)=O | 0.709 ± 0.029
CC(=O)OCC(=O)[C@@]12OC(C)(C)O[C@@H]1C[C@H]1[C@@H]3C[C@H](F)C4=CC(=O)C=C[C@]4(C)[C@@]3(F)[C@@H](O)C[C@@]12C [Fluocinonide] | 1.09 ± 0.097
c1ccc2c(CC3=NCCN3)cccc2c1 [Naphazoline HCl] | 1.2 ± 0.024
CC(C=CC(=O)NO)=CC(C)C(=O)c1ccc(N(C)C)cc1 (stereo unspecified) [Trichostatin A (TSA)] | 0.177 ± 0.0076
CCN(CC)CC(=O)Nc1c(C)cccc1C [Lidocaine] | 1.18 ± 0.015
O=C(O)c1cc(=O)[nH]c(=O)[nH]1 [Orotic acid (6-Carboxyuracil)] | 1.13 ± 0.022
Cc1ccccc1C(C(=O)NC1CCCCC1)N(C(=O)Cn1ccnc1C)c1cccc(F)c1 (stereo unspecified) | 1.09 ± 0.083
CC1(C)S[C@@H]2[C@H](NC(=O)[C@H](N)c3ccccc3)C(=O)N2[C@H]1C(=O)O [Ampicillin sodium] | 1.19 ± 0.13
CC1(C)S[C@@H]2[C@H](NC(=O)[C@H](N)c3ccccc3)C(=O)N2[C@H]1C(=O)O [Ampicillin Trihydrate] | 1.23 ± 0.043
C=C[C@H]1CN2CC[C@H]1C[C@H]2[C@H](O)c1ccnc2ccc(OC)cc12 [Quinine HCl Dihydrate] | 1.05 ± 0.092
Cc1ccc(-n2nc(C(C)(C)C)cc2NC(=O)NCc2cc(F)ccc2Oc2ccc3c(cnn3CCO)c2)cc1 [Pexmetinib (ARRY-614)] | 1.16 ± 0.074
Cc1ccc(C(=O)Nc2ccc(CN3CCN(C)CC3)c(C(F)(F)F)c2)cc1C#Cc1cnc2[nH]ncc2c1 | 0.5899 ± 0.0034
Oc1ccc(-c2nc(-c3ccc(F)cc3)c(-c3ccncc3)[nH]2)cc1 | 1.18 ± 0.081
OCCn1cc(-c2cnc3nnn(Cc4ccc5ncccc5c4)c3n2)cn1 | 1.23 ± 0.15
Cc1ncc([N+](=O)[O-])n1CC(C)O (stereo unspecified) [Secnidazole] | 1.04 ± 0.069
COc1ccc2cc([C@H](C)C(=O)O)ccc2c1 [Naproxen] | 1.11 ± 0.12
C[C@]12CCC(=O)C=C1[C@@H]1C[C@@H]1[C@H]1[C@@H]3[C@@H]4C[C@@H]4[C@@]4(CCC(=O)O4)[C@@]3(C)CC[C@@H]12 [Drospirenone] | 0.77 ± 0.4
COc1cccc2c1C(=O)c1c(O)c3c(c(O)c1C2=O)C[C@@](O)(C(=O)CO)C[C@@H]3O[C@H]1C[C@H](N)[C@@H](O)[C@H](C)O1 [Epirubicin HCl] | 0.903 ± 0.067
CCCN(CCC)CCc1cccc2c1CC(=O)N2 [Ropinirole HCl] | 0.62 ± 0.76
CN(C(Cc1ccc(OS(=O)(=O)c2cccc3cnccc23)cc1)C(=O)N1CCN(c2ccccc2)CC1)S(=O)(=O)c1cccc2cnccc12 (stereo unspecified) | 0.992 ± 0.046
CN1CCC(Nc2nc(Nc3ccc(Oc4ccccc4)cc3)c3c(=O)[nH]cc(Br)c3n2)CC1 | 0.658 ± 0.12
CC(=O)O[C@H]1C(=O)[C@@]2(C)[C@H]([C@H](OC(=O)c3ccccc3)[C@]3(O)C[C@H](OC(=O)[C@H](O)[C@@H](NC(=O)c4ccccc4)c4ccccc4)C(C)=C1C3(C)C)[C@]1(OC(C)=O)CO[C@@H]1C[C@@H]2O [Paclitaxel] | 0.994 ± 0.028
